In PubChem BioAssay AID463173 (ICCB-Longwood Screening Facility, Harvard Medical School, 2010):
In all, about 52,000 compounds went through this assay and about 4,300 (8.3%) were called active. Rule as the data show it: active = survival mostly below about 52% (no sharp cut-off); inactive = mostly above about 56%. The list shows a part of the results.

system: DeltatarO mutant; assay: S. aureus survival, RN4220 and DeltatarO strains – OD600, teichoic acid synthesis inhibitors, primary screen (AID 463173); conditions: S. aureus RN4220 wild type/DeltatarO growth, OD600, 18 h, stronger effect = lower value, screened at 18.75 µg/mL (by protocol)

| SMILES | survival |
| --- | --- |
| COc1ccc(C)cc1NS(=O)(=O)c1cc2c3c(c1)CC(=O)N3CCC2 | inactive: 105% |
| CCOc1cc(NC(=O)C2CC2)c(OCC)cc1NC(=O)CCn1nnc2ccccc21 | inactive: 80% |
| CCn1c(=N)c(C(=O)NC2CCCCC2)cc2c(=O)n3cc(C)ccc3nc21 | inactive: 45% |
| Cc1ccccc1CCNC(=O)c1cc2cc(S(=O)(=O)N3CCCCC3)ccc2n1C | active: 20% |
| COc1ccc(-n2c(=O)c3ccccc3n(CC(=O)NCCc3ccc(OC)c(OC)c3)c2=O)cc1 | inactive: 90% |
| COc1cc2c(cc1OC)C(COc1cc(C)cc(C)c1)N(C(=O)COc1ccccc1)CC2 (stereo unspecified) | inactive: 74% |
| COc1ccc(Cl)cc1NC(=O)CCCN1C(=O)C(c2ccccc2)Oc2cccnc21 (stereo unspecified) | inactive: 93% |
| CCN(CC)c1ccc(NC(=O)c2sc3nc4c(cc3c2N)CN(C)CC4)cc1 | inactive: 181% |
| CC(C)(C)C(=O)C1=C(O)C(=O)N(c2ccccc2)C1c1ccccc1 (stereo unspecified) | inactive: 64% |
| CCn1c(C(=O)N2CCCC(C(=O)N3CCN(c4cc(C)ccc4C)CC3)C2)cc2sccc21 (stereo unspecified) | inactive: 62% |
| O=C(Nc1ccc2nc(SCC(=O)N3CCc4ccccc43)sc2c1)c1cccc(Cl)c1 | inactive: 100% |
| COc1cc(OC)c(OC)cc1CNc1sc2c(c1C(=O)Nc1ccccc1OC)CCC2 | inactive: 113% |
| CN(C(=O)CCS(=O)(=O)c1cc2c(cc1Cl)NC(=O)CO2)C1CCCCC1 | inactive: 95% |
| Cc1ccc(CCNC(=O)CCS(=O)(=O)c2cc3c(cc2C)NC(=O)CO3)cc1 | inactive: 85% |
| Cc1nncn1-c1ccc(C(=O)Nc2cc(F)ccc2F)cc1 | inactive: 94% |
| O=C(Nc1c(C(=O)N2CCN(c3ccccc3)CC2)oc2ccccc12)c1ccco1 | active: 37% |
| Cc1c(C(=O)NCCc2ccc(Cl)cc2)sc2nc3n(c(=O)c12)CCCC3 | inactive: 50% |
| CC(C)C(=O)NCC(c1ccc2c(c1)OCO2)N1CCN(c2ccccc2)CC1 (stereo unspecified) | inactive: 99% |
| Cc1ccccc1CN1c2ccccc2-c2nc(SCC(=O)NCc3ccccc3)ncc2S1(=O)=O | active: 20% |
| COc1ccc(-n2ncc(C(=O)Nc3cccc(C(F)(F)F)c3)c2C2CCN(C(=O)OC(C)(C)C)CC2)cc1 | inactive: 79% |
| Cc1ccc(C2=Nc3ccccc3N(CC(=O)NCc3ccccc3Cl)C(=O)C2)cc1C | inactive: 82% |
| COc1ccc(N2Cc3cccc(C(=O)Nc4ccc(F)cc4)c3C2=O)cc1 | inactive: 92% |

| SMILES | survival |
| --- | --- |
| CCOc1ccc(NC(=O)c2oc3ccccc3c2NC(=O)c2c(F)cccc2F)cc1 | inactive: 91% |
| C=CCNC(=O)c1ccc(CN2CCOCC2)cc1 | inactive: 82% |
| CNc1nc2ccccc2o1 | inactive: 89% |
| Cc1ccc2nc(CNC(=O)c3ccccc3)[nH]c2c1 | inactive: 104% |
| COc1ccc(CCNC(=O)C(=O)NCC(c2ccc3c(c2)OCO3)N2CCOCC2)cc1OC (stereo unspecified) | inactive: 69% |
| Cc1cccc(-c2noc(CSc3nc(-c4ccc(F)cc4)cc(=O)[nH]3)n2)c1 | inactive: 83% |
| CCOc1ccc(N2C(=O)CC(NCCNC(=O)c3ccc(Cl)cc3)C2=O)cc1 (stereo unspecified) | inactive: 102% |
| Cc1cccn2c(=O)c(C(=O)NCCc3ccccc3)c(O)nc12 | inactive: 52% |
| CCN(c1cccc(C)c1)S(=O)(=O)c1nnc(NC(=O)c2ccccc2Cl)s1 | active: 17% |
| Cc1ccc2nc(-c3ccc(NC(=O)COc4ccccc4)cc3)sc2c1 | inactive: 68% |
| Cc1ccc(S(=O)(=O)Nc2ccc(N=NN3CCCCC3)cc2)cc1 | inactive: 71% |
| CC(=O)c1ccc(N2C(=O)N(CC(=O)c3ccc(C)cc3)c3ccccc3S2(=O)=O)cc1 | inactive: 80% |
| CCOc1ccc(NC(=O)C2CCCN(S(=O)(=O)c3ccc4[nH]c(=O)ccc4c3)C2)cc1 (stereo unspecified) | inactive: 97% |
| COc1ccccc1N1CCN(C(=O)CSc2nc3ccccc3nc2Cc2ccccc2)CC1 | inactive: 101% |
| COc1cccc(-n2ccn(CC(=O)c3ccc(F)cc3)c(=O)c2=O)c1 | inactive: 87% |
| Cc1ccc(CSC2=Nc3ccccc3C3=NC(CC(=O)NC4CCCCC4)C(=O)N23)cc1 (stereo unspecified) | inactive: 71% |
| CCCN(CCC)S(=O)(=O)c1ccc2c(c1)N(CC(=O)NC(C)c1ccccc1)C(=O)CS2 (stereo unspecified) | inactive: 67% |
| COc1ccc(CNC(=O)c2cc(Nc3ccc(C)cc3C)nc3ccccc23)cc1 | inactive: 73% |
| Cn1cnc(S(=O)(=O)N2CCC(C(=O)N3CCN(c4ccccc4F)CC3)CC2)c1 | inactive: 75% |
| CSc1cccc(NS(=O)(=O)c2cn(C)c(C)n2)c1 | inactive: 75% |
| Cc1cc(C)cc(NS(=O)(=O)c2ccc3[nH]cc(C(=O)NCc4ccccc4Cl)c(=O)c3c2)c1 | inactive: 115% |
| O=C(CSc1nnc(-c2ccc([N+](=O)[O-])cc2)o1)Nc1ccccc1 | inactive: 81% |

| SMILES | survival |
| --- | --- |
| COc1cc(NC(=O)Cn2c(=O)n(Cc3ccco3)c(=O)c3oc4ccccc4c32)cc(OC)c1 | active: 38% |
| Cc1ccc(OCCn2nnc3sc4c(c3c2=O)CCC(C)C4)cc1 (stereo unspecified) | inactive: 54% |
| CCOC(=O)C(C)Nc1n[nH]c(=O)[nH]c1=O (stereo unspecified) | inactive: 90% |
| CCOc1ccc(C(=O)N2CCC(c3noc(-c4ccc(S(=O)(=O)N5CCCC5)cc4)n3)CC2)cc1 | inactive: 87% |
| CCc1c(-c2ccccc2)nc2ccccc2c1C(=O)NCc1ccc(C)cc1 | inactive: 92% |
| CN(C1CCCCC1)S(=O)(=O)c1ccc2c(c1)c(=O)c(C(=O)N1CCN(c3ccccc3F)CC1)cn2C | inactive: 87% |
| COC(=O)c1cc(NC(=O)Cn2nc(-c3ccc(C)c(C)c3)ccc2=O)cc(C(=O)OC)c1 | inactive: 65% |
| CCC(C)NC(=O)C1=CC(c2ccc3c(c2)OCO3)=NS(=O)(=O)N1C (stereo unspecified) | inactive: 83% |
| CC(C)(C)c1ccc(C(=O)N2CCCCC2CCN2CCCCC2)cc1 (stereo unspecified) | inactive: 83% |
| O=C(CN1C(=O)COc2ccc(S(=O)(=O)Nc3ccccc3)cc21)Nc1cccc(Cl)c1 | inactive: 96% |
| COc1cccc2c1Oc1ncccc1N(C(=O)CCC(=O)NCc1ccccc1Cl)C2 | inactive: 58% |
| COc1ccc2c(c1)cc1c(=O)n(CC(=O)NCCCc3ccccc3)nc(C)n12 | inactive: 74% |
| COC(=O)c1ccc(Cn2nnc3c(=O)[nH]c(C4CCCN(S(=O)(=O)c5cccc(Cl)c5)C4)nc32)cc1 (stereo unspecified) | inactive: 94% |
| COc1ccc(N2CCN(c3nc4ccc(C)cc4n4nnnc34)CC2)cc1 | active: -5% |
| O=C(Nc1ccc(Br)cc1F)N1CCC2(CC1)Oc1ccccc1C(=O)N2Cc1ccccc1F | inactive: 69% |
| CCN(c1ccccc1)c1nnc(NC(=O)Nc2ccc(Br)cc2F)s1 | inactive: 97% |
| COc1ccc(C2C(C(=O)Nc3ccc(C)cc3C)=C(C)Nc3nc4ccccc4n32)c(OC)c1 (stereo unspecified) | inactive: 77% |
| COc1ccc2occ(CC(=O)Nc3ccc(S(=O)(=O)Nc4nc(C)cc(C)n4)cc3)c2c1 | inactive: 104% |
| Cc1cc(Cl)ccc1OCC(=O)N(Cc1ccco1)Cc1ccco1 | inactive: 55% |
| COc1ccc(-c2cn3cccnc3n2)cc1NC(=O)c1cc(C)cc(C)c1 | inactive: 61% |
| O=C(c1ccccc1)n1nnc2ccccc21 | inactive: 106% |
| COc1ccc(-c2nnc(C3CCN(S(=O)(=O)c4ccc(C)c(C)c4)CC3)o2)cc1 | inactive: 64% |

| SMILES | survival |
| --- | --- |
| Cc1ccc(-n2ncc(C(=O)N3CCN(c4ccc(Cl)cc4)CC3)c2C2CCN(C(=O)OC(C)(C)C)CC2)c(C)c1 | inactive: 92% |
| CCOC(=O)c1ccc(NC(=O)c2ccc(=O)n(Cc3cccc(C)c3)c2)cc1 | inactive: 67% |
| CC(O)CNc1nc2c(c(=O)n(Cc3ccc(Cl)cc3)c(=O)n2C)n1C (stereo unspecified) | inactive: 145% |
| COc1ccc(CCNC(=O)CCc2c(C)c3cc4c(C)coc4c(C)c3oc2=O)cc1OC | inactive: 92% |
| Cc1ccccc1CSc1ncc(CO)n1Cc1ccc(F)cc1 | inactive: 124% |
| CCOc1ccc(-c2cc(-c3nc(-c4ccc(OC)c(OC)c4)no3)[nH]n2)cc1 | inactive: 72% |
| Cc1cc(C)nc(SCC(=O)Oc2ccc3oc(=O)cc(C)c3c2)n1 | inactive: 95% |
| CC(=O)c1ccc(NC(=O)CC(c2cccs2)N2Cc3ccccc3C2=O)cc1 (stereo unspecified) | inactive: 58% |
| COc1ccc(Cc2nc3ccccc3n2Cc2ccccc2F)cc1 | active: 18% |
| CCN(C(=O)Cn1cnc2sc(C)c(S(=O)(=O)N3CCN(c4ncccn4)CC3)c2c1=O)c1ccccc1F | inactive: 57% |
| CCOc1ccc(-c2nnc(SCC(=O)NCc3ccccc3)o2)cc1 | inactive: 93% |
| O=C1CN(C(=O)c2ccc(S(=O)(=O)N3CCCC3)cc2)C(c2ccccc2)c2cc(Br)ccc2N1 (stereo unspecified) | inactive: 61% |
| Cc1ccc(NC(=O)CN2CCSc3ccc(S(=O)(=O)N4CCCC4)cc32)cc1C | inactive: 54% |
| CC(C)(C)C(=O)NC1(C(F)(F)F)C(=O)Nc2c1c(=O)[nH]c(=O)n2-c1ccccc1 (stereo unspecified) | inactive: 56% |
| CCOc1ccc(-n2nc3cc(C)c(NC(=O)c4cc(OCC)c(OCC)c(OCC)c4)cc3n2)cc1 | inactive: 137% |
| COc1cc(OC)c(NS(=O)(=O)c2cc(-c3cnc(C4CC4)o3)ccc2C)cc1Cl | inactive: 55% |
| Cc1nnc(N2CCC(C(=O)NCCc3ccccc3)CC2)c2nn(-c3ccc(Cl)cc3)c(C)c12 | inactive: 73% |
| Cc1cc2c(cc1S(=O)(=O)CCC(=O)NCCc1ccccc1)OCC(=O)N2 | inactive: 87% |
| CCC1CN(C(=O)Nc2ccc(C)c(F)c2)c2ccccc2S1 (stereo unspecified) | inactive: 125% |
| CCc1ccc(CNC(=O)CCc2c(C)nn(-c3ccc(N4CCCC4)nn3)c2C)cc1 | inactive: 77% |
